120 sequences from the supplement of paper PMC10126150 can be followed below.

The subject of this data set is ATP. The data set can be described thus: switch fluorescence ratio, 500 uM ATP over buffer (Cy3 cluster intensity, sum of 5 cycles each) (fold (ratio)); higher = stronger signal-on switching upon ATP binding; sequences stand for … in TCGTCGGCAGCGTCAGATGTGTATAAGAGACAGTTTTTTTTTTTTTTTTTTTTTTTTT…TC. The following applies: aptamer strand: ATP DNA aptamer (quencher-CACCTGGGGGAGTATTGCGGAGGAAGG + anchor), 100 nM annealed; ATP concentration: 500 uM; one replicate. In outline: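 Imaging in selection buffer was followed by imaging after 15 min with 500 uM ATP at 22 °C, for Cy3-labelled switching-strand clusters annealed to 100 nM quencher-labelled ATP aptamer on a modified Illumina MiSeq flow-cell. Five of these buffer/ATP cycles ran, separated by NaOH stripping and re-annealing. The fluorescence ratio per cluster is summed target-cycle over summed buffer-cycle Cy3 intensity, averaged per switch-domain sequence; clusters outside 100-1000 RFU were removed.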

Sequences with one replicate were seen in a single cluster, so their values are uncertain.
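Note: ATP exposure 15 min at 22 °C before imaging.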

For ACAGGAAACT, the switch fluorescence ratio came out at 1.03.

GTATTACGAA: the switch fluorescence ratio was 0.96. Then CCATGTGCTA, with 1.11. As for ATATTTTAAA, the switch fluorescence ratio was determined as 0.991. With CCAGAGACGA, the switch fluorescence ratio is 1.15. Then GAGTTTGATT, with 0.948. Then CGGCGTGCTT, with 0.996; and ACGGTTGGCA, with 0.981; and AGCGCAGTCG, with 0.949. Then TACTCGACGA, with 1.09.

In the case of GTCGCTACTG, the switch fluorescence ratio was 0.955. Then AAAGGTCATC, with 1.03; and GAGAAAGACT, with 1.05; and TCACCGAGAT, with 1.08.

In the case of ACTGCAGACC, the switch fluorescence ratio is 1.18. Then ATGCGGTATC, with 0.986. Consider CCTACATGAT, for which the switch fluorescence ratio was 1.15. Then GGAGTAGCGG, with 1.08.

With GGGATGCGAG, the switch fluorescence ratio was 0.977. As for CCAGTATGAT, the switch fluorescence ratio was determined as 1.01. On to GCGATCAAAG, for which the switch fluorescence ratio came out at 0.96. Then GAAGCACTC, with 3.08. Consider GCCAACCTGA, for which the switch fluorescence ratio stood at 1.11. In the case of CAGTGTCAGC, the switch fluorescence ratio turned out to be 0.959.

TTGGTCCTGA: the switch fluorescence ratio is 0.926.

For the sequence AAAGATGGTG, the switch fluorescence ratio was 1.04. Then GACAAAAACT, with 1.05. Then GTGCGATCGT, with 0.932; and GGAGTGGGGT, with 0.978; and GGTTTTTGT, with 1.01.

GAGTGGTCGT: the switch fluorescence ratio came out at 0.954.

ATCAACTAAG: the switch fluorescence ratio stood at 0.974. Then GGATGGAGG, with 1.04; and AATGTACCTT, with 1.2.

For the sequence ATGATGGGTT, the switch fluorescence ratio worked out at 0.988. Then GGGTTCGGTT, with 0.93; and TATTCCCGAG, with 1; and ATAGCCCTGT, with 0.961.

As to GGGAAAGCAG, the switch fluorescence ratio came out at 0.998. On to GCTCAGCATG, for which the switch fluorescence ratio was 1.29. Then ATGCTAGAGC, with 1.02; and GGCACAGGAT, with 0.968. Then TGAGTTCGTG, with 1. Then TACATTCGAA, with 0.997. For AGAGCGGT, the switch fluorescence ratio was found to be 1.24. Then TGGACCAAGC, with 0.963.

Regarding CTCGACAGGA, the switch fluorescence ratio came out at 1.03. Then ACCTAATCTG, with 1.13; and TTTACTACCT, with 1.43; and CTCCTCCATT, with 1.27. Then CATTTGTACG, with 1.04; and AACGGCTTAG, with 1.01; and ATTAGCAATC, with 3.36. Then AAATTTATT, with 1.01; and ATGGCGAATG, with 0.982; and TTGATGGGCG, with 1.04. As to ACCTAGAGGT, the switch fluorescence ratio was found to be 0.99. Then TGTATTCTGG, with 0.999; and GTGTAAGTTA, with 1.01; and AAACCTCGCT, with 1.28. Turning to GTTGCACTAG, the switch fluorescence ratio is 0.976. On to AATATGGGTC, for which the switch fluorescence ratio stood at 0.948. Take GCCGTTGGCC: the switch fluorescence ratio came out at 1.02.

Consider CGTGCTATGG, for which the switch fluorescence ratio is 1.04. Then AATAAGCGAT, with 1.03; and AGTCGCCCTT, with 1.01; and TTTTCTTCGC, with 1.19. For GGGCAGGAAA, the switch fluorescence ratio came to 0.967. Regarding AATGATTAT, the switch fluorescence ratio came to 0.93. GATAGCCCGG: the switch fluorescence ratio amounted to 1.01.

Regarding CCGGGTGAAT, the switch fluorescence ratio was found to be 1.02. Then AGACAGAAAG, with 0.998. In the case of TTAAGTTTC, the switch fluorescence ratio turned out to be 0.982. Then GCTCCGGTAT, with 4.64; and ATAAGCAACA, with 1.08; and GCCTTCAAAC, with 1.13.

Take AAGACTCAT: the switch fluorescence ratio came out at 1.04. Then AATATCCACC, with 1.07; and AGAATGCCGG, with 1.05. Then CAACTGTTCC, with 1.2; and CCTATAGATG, with 1.04. Consider TGAGGGAAAG, for which the switch fluorescence ratio is 1.03.

For the sequence TACTACGGCC, the switch fluorescence ratio turned out to be 1.06. Then AAGTAATGAT, with 0.989. TGTGGGTGTG: the switch fluorescence ratio was 0.94.

Regarding TGCGGTACAA, the switch fluorescence ratio stood at 1.03.

Take TATATGCTAT: the switch fluorescence ratio was 1.01.

In the case of TATGAGGCTG, the switch fluorescence ratio was 0.977. Then ATATGCGTC, with 0.976; and GAAATGAAGT, with 0.987. Then CGGCCTCGCG, with 1.02; and CCAGGATACA, with 1.01. Then CCGCCGATTG, with 2.03. For TCGAGGGACA, the switch fluorescence ratio was 1.09. Then ACATCGT, with 0.986.

As for CATAAAGAGC, the switch fluorescence ratio is 1.03.

With TATGGCAAA, the switch fluorescence ratio turned out to be 1.

Regarding TTTCTACGAT, the switch fluorescence ratio came to 1.04.

With GCAAGGATGT, the switch fluorescence ratio was 0.988.

As for TAAGTCCCTG, the switch fluorescence ratio was 1.01.

As for GACTTAGGC, the switch fluorescence ratio came out at 1.06. Then TTAATCTTC, with 1.03; and GCTTTCCAGT, with 1.02; and GAGTATGGGG, with 0.953. Then GTGCCTGCTC, with 0.991; and CGTAGATTAT, with 1.01; and TTGGGGTCTA, with 1.01. With AAGCGGACTT, the switch fluorescence ratio is 1.04.

As to GCCTTCCAGA, the switch fluorescence ratio came to 1.39.

For the sequence AGCCTAAAAA, the switch fluorescence ratio came out at 0.945.

Take TGTATTTCGC: the switch fluorescence ratio is 0.992.

For TTAATGGAGA, the switch fluorescence ratio amounted to 0.985. Then ATCAGTGGAC, with 1.02. With AAACGTAAA, the switch fluorescence ratio was 1.09. Then CAAGAAGAGG, with 0.991. Then TTCCTATACT, with 1.11. Then GTGATGACGA, with 1; and CCATCGGTAG, with 0.975. TATTAAAGGA: the switch fluorescence ratio was determined as 1.06. Consider CCTGTTCCCT, for which the switch fluorescence ratio was 2.15.
